# According to publication PMC6919601, “Identification of Plasmodium dipeptidyl aminopeptidase allosteric inhibitors by high throughput screening” (PLoS ONE, 2019):
# Where “and” joins values, the source holds several entries; their conditions need not be identical. Equal entries are not always repeated. In all, about 110,000 compounds went through this assay and about 230 (0.21%) showed an effect of 50% or more. Some of the results follow.
# Target: DPAP1 (Plasmodium falciparum, UniProt Q8IIJ9)
# Assay: primary screen, percent inhibition; read by cleavage of a fluorogenic dipeptide substrate; higher = more effect of the substance
# Set-up: species or system P. falciparum D10 trophozoite lysates; single well
# 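Also: 30 min substrate incubation versus DMSO and 10 µM JCP410 controls.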
# DPAP1, sequence (Q8IIJ9 whole entry, looked up): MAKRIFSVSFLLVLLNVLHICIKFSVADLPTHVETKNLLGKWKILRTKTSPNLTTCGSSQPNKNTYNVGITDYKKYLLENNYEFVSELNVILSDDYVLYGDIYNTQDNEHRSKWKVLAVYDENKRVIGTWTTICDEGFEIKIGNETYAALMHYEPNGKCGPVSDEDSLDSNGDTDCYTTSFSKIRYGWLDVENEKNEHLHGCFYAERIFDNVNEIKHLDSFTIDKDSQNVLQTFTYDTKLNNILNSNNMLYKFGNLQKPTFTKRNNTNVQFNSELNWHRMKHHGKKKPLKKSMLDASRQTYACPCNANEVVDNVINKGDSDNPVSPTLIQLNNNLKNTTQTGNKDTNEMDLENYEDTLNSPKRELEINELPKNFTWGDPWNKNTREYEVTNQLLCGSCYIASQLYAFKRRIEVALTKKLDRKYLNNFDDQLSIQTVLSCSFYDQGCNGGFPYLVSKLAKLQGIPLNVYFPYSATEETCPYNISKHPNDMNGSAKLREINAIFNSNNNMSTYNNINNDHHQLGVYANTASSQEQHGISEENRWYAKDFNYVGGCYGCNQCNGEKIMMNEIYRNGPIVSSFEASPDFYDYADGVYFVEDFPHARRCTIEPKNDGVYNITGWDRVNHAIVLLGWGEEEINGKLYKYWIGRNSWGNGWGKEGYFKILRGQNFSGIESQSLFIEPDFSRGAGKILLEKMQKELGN
row,SMILES,% Inhibition @ 10 uM
1,O=C(c1cccc(C(F)(F)F)c1)n1nnc2ccccc21,8.74%
2,COc1c(-c2ccccc2)oc2cc(O)cc(O)c2c1=O,4.7% and -3.33%
3,COc1ccccc1CN1CCN(Cc2ccccc2)CC1,-3.56%
4,O=C(Nc1cccc2ccccc12)c1ccccc1C(=O)N(c1ccccc1)c1ccccc1,-8.49%
5,CS(=O)(=O)N(Cc1ccc(Cl)cc1)c1ccc(C(=O)Nc2ccc(CC#N)cc2)cc1,-10.2%
6,COc1ccc(NCc2ccccc2)cc1,-2.66%
7,Cc1ccccc1-c1noc(-c2nnn(-c3ccc(Br)cc3F)c2N)n1,1.13%
8,C=CCNC(=O)CCCOc1ccc(Cl)cc1Cl,-2.02%
9,O=C(N/C(=C\c1ccc(Cl)cc1)C(=O)N1CCCCC1)c1ccco1,-3.26%
10,Cc1ccc(CCNS(=O)(=O)c2ccc(-c3ccc(O)nn3)s2)cc1,-0.349%
11,CCN(CC)C(=O)c1ccc(/N=C/c2c(C)nn(-c3ccc(C)c(C)c3)c2O)cc1,-0.736%
12,CCc1cc2c(cc3c(=O)n(CC(=O)NCc4ccc(C)cc4)nc(CC)n32)s1,-5.32%
13,Cc1nc2ccc(S(=O)(=O)N(C)CC(=O)NCc3ccc4c(c3)OCO4)cc2s1,-7.8%
14,Cc1c(CCN)c2ccccc2n1-c1ccccc1,-10.8%
15,COc1ccc(C2NC(=O)NC(C)=C2C(=O)Nc2ccc(C)cc2)cc1 (centres unmarked),0.205%
16,COc1ccc(C(=O)N(Cc2ccc(C(C)C)cc2)Cc2ccco2)cc1,3.69%
17,COc1cc(Br)c(Br)c(/C=C2/SC(=O)NC2=O)c1O,26.8%
18,CCOc1cc(C2C(C#N)=C(N)Oc3[nH]nc(-c4ccc5c(c4)OCO5)c32)cc(Br)c1O (centres unmarked),-4.6%
19,CC(C)C[C@H](NC(=O)N1CCN(C(C)(C)C)CC1)C(=O)NCC#N,1.35%
20,CCC1CCC(N2CCCC(O)C2)CC1 (centres unmarked),-1.21%
21,CCOc1ccc(/C=C2\CS/C(=C\c3ccc(OCC)cc3)C2=O)cc1,-1.29%
22,COc1ccc(NC(=O)C2CC3CCC2C3)c(OC)c1 (centres unmarked),-1.61%
23,O=C(CN1CCCN(Cc2ccccc2)S1(=O)=O)NCc1ccco1,-4.36%
24,Cc1ccc2c(c1)-c1c(cnn1CC(=O)Nc1ccc(Cl)cn1)CO2,-6.77%
25,O=C1C=C(Nc2ccc(O)cc2)C(=O)c2ccccc21,7.96%

row,SMILES,% Inhibition @ 10 uM
1,CCOc1ccc2nc(SCC(=O)Nc3ccc(OC)cc3)c(C#N)cc2c1,2.84%
2,O=C1CSC(c2ccccc2[N+](=O)[O-])N1Cc1ccccc1 (centres unmarked),-0.771%
3,COc1ccccc1C(=O)NC(C)c1cc(C)ccc1C (centres unmarked),1.67%
4,COc1ccc(NC(=O)C(C)NS(=O)(=O)c2ccc(C)cc2)cc1OC (centres unmarked),-1.61%
5,C/C(=C\c1ccccc1)CN(CCO)Cc1ccccc1,-11.4%
6,CC1CCN(c2c(NCc3ccc(C(=O)NCCc4ccc(Cl)cc4)cc3)c(=O)c2=O)CC1,-0.522%
7,COc1ccc(C2=NS(=O)(=O)N(C)C(C(=O)NC(C)(C)CO)=C2)cc1,5.48%
8,CCc1cc2c(cc3c(=O)n(CC(=O)NCc4ccc(C)cc4)ncn32)s1,1.68%
9,COc1ccc(CC[N+]2=NO/C(=N/C(C)=O)C2)cc1OC,-9.5%
10,COc1cc(-c2cc(C(F)(F)F)n3ncc(C(=O)NCC(C)C)c3n2)cc(OC)c1OC,1.72%
11,COc1ccc(/C=N/O)cc1[N+](=O)[O-],0.266%
12,Cc1ccc(S(=O)(=O)N2CCC(Oc3cccc(C(F)(F)F)c3)CC2)cc1,3.88%
13,CCSc1cc(N2CCN(CC)CC2)nc(-c2ccc(OC)cc2)n1,-3.18%
14,CC1(C)CC(=O)C2=C(C1)Oc1nc(N)c(C#N)c(N)c1C2c1cccc(Br)c1 (centres unmarked),6.31%
15,CCCC(=O)N1CCN(c2cc(N3CCC(C)CC3)c(F)cc2[N+](=O)[O-])CC1,-1.32%
16,CC(=O)c1ccc(Nc2nc(-c3ccccc3O)nc3ccccc23)cc1,2.65%
17,Cn1nc(-c2ccccc2F)c2cc(C(=O)NC3CCCCC3)sc21,2%
18,O=C(CCC1CCCC1)N1CCN(C(=O)c2cccnc2)CC1,-1.32%
19,CC(=O)Nc1ccc(C(=O)Nc2cc(Cl)ccc2C)cc1,-2.99%
20,COCC(=O)c1[nH]c2ccccc2c1C,-5.6%
21,O=C(Nc1ccc(Cl)c(Cl)c1)NC(CC(=O)c1ccc([N+](=O)[O-])cc1)C(Cl)(Cl)Cl (centres unmarked),-2.18%
22,O=C(Nc1cccc(Cl)c1Cl)c1cccc(Br)c1,3.25%
23,O=C(Cn1ncn2cccc2c1=O)N1CCc2ccccc2C1,3.3%
24,CC(=C\c1ccccc1)/C=C1/SC(=O)N(CC(=O)N2CCOCC2)C1=O,10.6%
25,COc1ccc(CNC(=O)C2C3C(=O)N(Cc4ccccc4)CC34C=CC2(C)O4)cc1 (centres unmarked),-3.94%

row,SMILES,% Inhibition @ 10 uM
1,CC(C)C[C@H](NC(=O)c1cccc(-c2cnc(N(C)C)s2)c1)C(=O)NCC#N,20.1%
2,CCOC(=O)c1c(C)[nH]c(C)c1S(=O)(=O)N(CCc1ccncc1)CC1CCCO1 (centres unmarked),-2.5%
3,O=c1c(SCc2ccccc2)cc(Cl)nn1-c1ccccc1,0.343%
4,O=C(NC1CCN(Cc2ccccc2)CC1)C1CCCN1c1nnc(N2CCCC2=O)s1 (centres unmarked),0.623%
5,Cc1ccccc1-c1nc(CSCC(=O)N2CCN(Cc3ccccc3)CC2)c(C)o1,3.99%
6,Cc1ccnc2c(N3C(=O)C4CC=C(Cl)CC4C3=O)cccc12 (centres unmarked),-2.76%
7,CC(C)CC(NC(=O)c1ccc(-c2csc(N)n2)cc1)C(=O)NCC#N (centres unmarked),9%
8,CN(C)c1nc(Nc2ccc([N+](=O)[O-])cc2)nc(OCC(F)(F)F)n1,-1.59%
9,Cc1cc(C(C)(C)C)cc(S(=O)(=O)NCCc2ccncc2)c1C,-0.834%
10,CC(C)(C)c1ccc(C(=O)Nc2cnc3ccccc3c2)cc1,-10.9%
11,O=C(O)c1ccccc1N1C(=O)c2cc(Cl)c(Cl)cc2C1=O,3.8%
12,O=C1N=C(Nc2ccc(O)cc2)S/C1=C1\C(=O)Nc2ccc(Br)cc21,10.7%
13,O=C(C1CCCN(S(=O)(=O)c2ccc(Cl)cc2)C1)N1CCC(Cc2ccccc2)CC1 (centres unmarked),2.25%
14,O=C(N1CCCCC1)C12CC3CCC(CC(C3)C1)C2,-0.233%
15,Cc1ccc(-c2cc3c4cccn4ccn3c2)cc1,-3.65%
16,COc1ccc(CNC(=O)c2ccc(CN3CC(=O)N4CCCCC4C3=O)cc2)cc1 (centres unmarked),0.434%
17,NC(=O)c1ccccc1NC(=O)c1ccc(-c2ccc(Cl)cc2)o1,8.21%
18,SC(COCc1ccccc1)CN1CCN(c2ccccc2)CC1 (centres unmarked),1.03%
19,CCN(CC)S(=O)(=O)c1ccc(NC(=O)COc2cccc(C)c2)cc1,21.7%
20,O=C(COc1ccc(Cl)c(Cl)c1)Nc1ccc(Cn2cccn2)cc1,-6.05%
21,COc1cc2nc(NCc3ccccn3)n3nc(-c4ccccc4)nc3c2cc1OC,-6.07%
22,CCCCCCNC(=O)c1cnn2c(C)c(Cc3c(F)cccc3Cl)c(C)nc12,2.9%
23,COCCN1C(=O)C(O)=C(C(=O)c2ccc3c(c2)CC(C)O3)C1c1ccc(OC)c(OC)c1 (centres unmarked),-4.06%
24,COc1ccccc1OCCCC(=O)Nc1cccc(C)c1C,1.39%
25,CC1CCN(S(=O)(=O)c2ccc(NC(=O)CSc3ccccc3)cc2)CC1,-1.36%

row,SMILES,% Inhibition @ 10 uM
1,CCOC(=O)C1=C(NC(=O)c2ccc(C)cc2)S/C(=C\c2cc(Br)ccc2O)C1=O,-3.74%
2,O=C(O)c1ccnc(SCC(=O)c2ccccc2)c1,-2.45%
3,O=C(O)C(Cc1c[nH]c2ccccc12)/N=C/c1c(O)oc2ccccc2c1=O (centres unmarked),3.38%
4,CC(C)OCCCNC(=O)c1cc(S(=O)(=O)N2CCOCC2)cn1C,-1.87%
5,CCCCCCc1cc2cc(C#N)c(=O)oc2cc1O,67.5%
6,Brc1ccccc1CNc1ccc2c[nH]nc2c1,1.88%
7,CCn1cc(CNC(=O)c2cc(-c3cccc(C)c3)nc3ccccc23)cn1,-5.13%
8,CCCCCc1ccc(-c2ccc(-c3noc(-c4ccc(Br)cc4)n3)cc2)cc1,-2.42%
9,CCOc1ccc(NC(=O)C(C)Oc2ccc(C)cc2)cc1 (centres unmarked),0.331%
10,Cc1oc2c(c(C)cc3oc(=O)c4c(c32)CCC4)c1C,3.81%
11,Cc1ccc(OCC(=O)O/N=C(\N)Cc2cccs2)cc1C,-3.28%
12,Cc1ccc2onc(CNC(=O)NC3CCCC3)c2c1,-4.93%
13,CC1(C)CC(=O)C(/C=N/CCN2CCN(C(=O)c3ccc(Br)cc3)CC2)=C(O)C1,2.01%
14,COC(=O)c1ccc(C2C(C#N)=C(N)Oc3[nH]nc(C)c32)cc1 (centres unmarked),-1.46%
15,Cn1c(NCC(=O)c2ccc(Cl)cc2Cl)cc(=O)n(C)c1=O,-0.865%
16,O=C(NC1(C(F)(F)F)C(=O)Nc2c1c(=O)[nH]c(=O)n2-c1ccc(F)cc1)c1ccc(Cl)cc1 (centres unmarked),3.72%
17,CCN1CCCC1CNC(=O)Cn1nc(C)c2sc3ccccc3c2c1=O (centres unmarked),-5.61%
18,CCCCOc1ccc(C(=O)N(Cc2ccco2)C2CCS(=O)(=O)C2)cc1 (centres unmarked),0.569%
19,Cc1cc2ccccc2c(=O)n1CC(=O)NCC(=O)NCC1COc2ccccc2O1 (centres unmarked),-8.38%
20,CS(=O)(=O)N(CC(=O)NCCc1ccccc1)C1CCCCC1,-0.132%
21,Cc1ccc(N)c(C(=O)CCCCC(=O)O)c1,0.84%
22,Cc1cccc(OCC(=O)NC23CC4CC(CC(C4)C2)C3)c1C,-21.8%
23,CCOc1ccc(C2CC(=O)NC3=C2C(=O)CC(c2cc(OC)ccc2OC)C3)cc1 (centres unmarked),-2.95%
